Drawing on the supplement of paper PMC11880418, this text covers ALDHbr for 13 compounds.

Counter-ions that a name gives are not always drawn. Some of the results follow. The data scatter; read single values as rough.
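Further: High-content imaging of ALDEFLUOR-stained cells with Hoechst-labelled nuclei in 384-well plates, triplicate wells, scored as Z-score against 0.1% DMSO vehicle, negative meaning fewer ALDHbr cells.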

The experiment concerns T84. The experiment is described as follows: ALDHbr (CSC) cell proportion score relative to DMSO vehicle (ratio to DMSO); breast (SUM159) / gastric (MKN45) / pancreatic (PANC1) / colon cancer lines; ALDHbr cells have high ALDH activity and are rich in cancer stem cells (CSC); higher = more CSC (ALDHbr) cells remaining. The settings on record: 10 µM; 72 h.
In the case of `CN1C(=O)CC(c2ccccc2)C1=O` (stereo not drawn) [Phensuximide], the ALDHbr came out at 1.09.
The figure for `CCOC(=O)[N-]c1c[n+](N2CCOCC2)no1` [Molsidomine] is 0.948.
As for `CCN[C@H]1CN(CCCOC)S(=O)(=O)c2sc(S(N)(=O)=O)cc21` [Brinzolamide], the ALDHbr amounted to 0.947.
As to `CCCCCCNC(=O)n1cc(F)c(=O)[nH]c1=O` [Carmofur], the ALDHbr is 0.428.
In the case of `CCOC(=O)O[C@]1(C(=O)COC(=O)CC)CC[C@H]2[C@@H]3CCC4=CC(=O)C=C[C@]4(C)[C@H]3[C@@H](O)C[C@@]21C` [Prednicarbate], the ALDHbr came to 0.945.
`Cc1cccn2c(=O)c(-c3nnn[nH]3)cnc12` [Pemirolast potassium]: the ALDHbr worked out at 0.773.
With `CCn1cc(C(=O)O)c(=O)c2cc(F)c(N3CCN(C)CC3)cc21` [Pefloxacine], the ALDHbr is 0.994.
On to `C[C@H](CCC(=O)O)[C@H]1CC[C@H]2[C@@H]3[C@H](O)C[C@@H]4C[C@H](O)CC[C@]4(C)[C@H]3CC[C@]12C` [Chenodiol], for which the ALDHbr came out at 1.19.
To `CCOC(=O)C(C)(C)Oc1ccc(Cl)cc1` [Clofibrate] belongs 0.915.
`CC(CN1c2ccccc2Sc2ccccc21)N(C)C` (stereo not drawn) [Promethazine hydrochloride]: the ALDHbr turned out to be 0.893.
Turning to `CCOC(=O)[C@H](CCc1ccccc1)N[C@@H](C)C(=O)N1CCC[C@H]1C(=O)O` [Enalapril maleate], the ALDHbr stood at 1.
The figure for `Cc1ncc([N+](=O)[O-])n1CC(C)O` (stereo not drawn) [Secnidazole] is 1.04; for `CCCCC(=O)N(Cc1ccc(-c2ccccc2-c2nnn[nH]2)cc1)[C@H](C(=O)O)C(C)C` [Valsartan] it is 1.05.
